Inconclusive results, whose numbers are uncertain, are shown with a selection of clear calls. For some assays here: Potencies beside an inconclusive call are fits to weak or partial responses and may not hold up. The source holds several records for some structures; these can differ, active in one and inactive in another. The source made the active and inactive calls. The call rests on the fitted dose curve; in most records, active means well fitted curve in the direction sought with a large enough effect; inconclusive means small, poorly fitted or top-dose-only effect, or another doubt; inactive means no such curve, though single readings can be large; an effect the other way counts as inactive or inconclusive.
Legend:
[1] = Primary qHTS for inhibitors of nuclear receptor binding SET domain protein 2 (NSD2) in an isogenic RCH-ACV NSD2 p.E1099K mutant (9B) (AID 1645876); further: nearly all actives have a fitted effect of over 70% in size; further: potency means the concentration at half of the fitted maximal effect
[2] = target: Phospholipid hydroperoxide glutathione peroxidase GPX4 (Homo sapiens) (UniProt P36969); experiment: Primary qHTS Assay for Inhibitors of Recombinant Selenoprotein Glutathione Peroxidase 4 (GPX4) (AID 1845192); further: nearly all actives have a fitted effect of over 65% in size; further: potency means the concentration at half of the fitted maximal effect
UniProt P36969, sequence (P36969 whole entry, looked up): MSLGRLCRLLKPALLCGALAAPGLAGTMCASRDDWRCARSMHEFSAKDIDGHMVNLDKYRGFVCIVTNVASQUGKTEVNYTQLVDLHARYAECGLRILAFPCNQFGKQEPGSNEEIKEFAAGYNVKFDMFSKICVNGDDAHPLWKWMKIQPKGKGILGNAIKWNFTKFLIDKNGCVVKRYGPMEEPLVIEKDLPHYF
How it was run: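 qHTS, GR-coupled: GPX4 200 nM + cpd 30 min RT → GSH 1 mM, NADPH 0.5 mM, GR 100 nM → CHP 0.5 mM start; fluor 340/450 at t0 and t15 min; no-enzyme wells as control.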

[3] = qHTS for Inhibitors of Ubiquitin-specific Protease USP2a Using CHOP2 as the Reporter: K633 Counterscreen (AID 652168); further: series mostly up to about 57 µM; % of control where 0% means no effect
How it was run: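 Detection-system control: fluorescence of K48-linked DiUb-4IQF substrate (100 nM as added) tracked over time, Ex 525/Em 598, with pinned compounds and no enzyme, in pH 8 Tris buffer containing beta-mercaptoethanol and 0.05% Chaps.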

[4] = qHTS for Inhibitors of Ubiquitin-specific Protease USP2a Using CHOP2 as the Reporter: Cytotox Assay (AID 652170);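 further: HCT116 human colon cancer cells at 600 per well; series mostly up to about 46 µM; plate controls were DMSO-treated cells for no effect and wells without cells for full effect; nearly all actives have a fitted effect of over 70% in size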
How it was run: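 Cytotoxicity read as ATP luminescence (CellTiter-Glo) after 72 hr compound treatment at 37 deg C. Cells: HCT116, 600/well in DMEM plus 10% FBS. Normalization between DMSO-treated cells and cell-free wells.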

[5] = Primary qHTS for inhibitors of nuclear receptor binding SET domain protein 2 (NSD2) in an RCH-ACV wild type WT cells (2C) (AID 1645877); further: nearly all actives have a fitted effect of over 70% in size; further: potency means the concentration at half of the fitted maximal effect; on activity change, negative = cell killing: on the % scale 0 is the no-effect control and ±100 the full control effect
[6] = Primary fluorescence-based thiol-reactive (MSTI) qHTS assay for identification of artifact compounds. (AID 1845221); further: potency means the concentration at half of the fitted maximal effect;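 further: thiol-reactive compounds lower the probe fluorescence signal; nearly all actives have a fitted effect of over 65% in size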; on activity change, negative = thiol reactive: series mostly up to about 54 µM
How it was run: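 qHTS titration of compound; 4 uM MSTI, PBS pH 7.4, 2% DMSO; 1 h RT, dark; fluorescence 525/598 nm; normalized to Acetyl-MSTI and MSTI; 4-parameter Hill fit.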

[7] = Primary redox qHTS assay for identification of artifact compounds. (AID 1845223); further: potency means the concentration at half of the fitted maximal effect
How it was run: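 Redox-cycling detection via DTT (250 uM final) oxidation coupled to Amplex Red (25 uM)/HRP (250 mU/mL) in HBSS. 15 min preincubation plus 30 min after DTT, room temperature. Ex/Em 525/598 nm; 4-parameter Hill fit against DMSO and 10 uM DA3003.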

[8] = target: Glutathione peroxidase 1 (Homo sapiens) (UniProt P07203); experiment: Primary qHTS Assay for Inhibitors of Recombinant Selenoprotein Glutathione Peroxidase 1 (GPX1) (AID 1845191); further: nearly all actives have a fitted effect of over 65% in size; further: potency means the concentration at half of the fitted maximal effect
UniProt P07203, sequence (P07203 whole entry, looked up): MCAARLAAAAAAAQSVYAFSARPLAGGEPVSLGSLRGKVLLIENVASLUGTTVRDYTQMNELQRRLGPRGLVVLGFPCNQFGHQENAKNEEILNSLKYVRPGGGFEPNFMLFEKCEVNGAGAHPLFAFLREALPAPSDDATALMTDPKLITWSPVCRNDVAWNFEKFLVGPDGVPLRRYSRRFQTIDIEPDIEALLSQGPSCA
How it was run: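 GPX1 10 nM, GR 100 nM, GSH 1 mM, NADPH 0.5 mM, CHP 0.5 mM (final). 30-min cpd preincubation, RT. Ex340/Em450 read t=0, t=15 min.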

[9] = target: Ubiquitin carboxyl-terminal hydrolase 1 (Homo sapiens) (UniProt O94782); experiment: Inhibitors of USP1/UAF1: Pilot qHTS (AID 504865);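 further: rhodamine fluorescence freed from ubiquitin-rhodamine substrate followed over time; top concentration of the series differs between compounds; on the % scale 0 is the no-effect control and ±100 the full control effect; nearly all actives have a fitted effect of over 35% in size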
UniProt O94782, sequence (O94782 whole entry, looked up): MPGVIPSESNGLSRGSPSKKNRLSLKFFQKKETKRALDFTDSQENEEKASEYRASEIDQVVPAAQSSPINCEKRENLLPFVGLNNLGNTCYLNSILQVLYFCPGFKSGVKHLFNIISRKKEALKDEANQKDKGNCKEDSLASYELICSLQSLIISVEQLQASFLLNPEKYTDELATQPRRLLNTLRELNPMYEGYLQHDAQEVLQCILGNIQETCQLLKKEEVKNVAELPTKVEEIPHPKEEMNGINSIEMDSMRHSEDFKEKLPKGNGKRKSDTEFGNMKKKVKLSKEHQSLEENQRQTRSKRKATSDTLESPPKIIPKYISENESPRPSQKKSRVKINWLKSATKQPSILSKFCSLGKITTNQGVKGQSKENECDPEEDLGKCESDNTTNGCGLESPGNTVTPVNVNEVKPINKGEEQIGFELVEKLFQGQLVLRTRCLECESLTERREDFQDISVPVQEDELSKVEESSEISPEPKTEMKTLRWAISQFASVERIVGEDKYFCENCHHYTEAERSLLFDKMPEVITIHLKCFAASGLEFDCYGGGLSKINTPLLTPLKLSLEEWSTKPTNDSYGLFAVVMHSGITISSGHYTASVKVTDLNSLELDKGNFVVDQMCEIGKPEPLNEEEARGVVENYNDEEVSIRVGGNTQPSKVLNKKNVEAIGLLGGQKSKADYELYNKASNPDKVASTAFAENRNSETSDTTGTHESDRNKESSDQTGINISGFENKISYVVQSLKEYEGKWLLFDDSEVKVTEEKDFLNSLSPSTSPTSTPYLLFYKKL
How it was run: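 Enzyme-free wells gave the negative control, while test wells held 1nM USP1/UAF1 preincubated with compound for 15 min at room temperature. Ub-Rho at 150nM final started the reaction, and fluorescence at 480/540 nm was recorded kinetically.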
Tags describe the fitted curve by direction and shape.

Compound: Cc1ccc(NC(=O)[C@H]2CCCN(C(=O)c3c(C)cccc3F)[C@H]2c2ccc(NC3CCCC3)cc2)cc1C(F)(F)F
- Potency [1]: inconclusive: 7.42 µM [inhibitor, partial curve, poor fit]
- Potency [2]: inconclusive: 22.7 µM [inhibitor, partial curve, poor fit]

Compound: O=C(Nc1ccc(S(=O)(=O)Nc2nccs2)cc1)c1cc(-c2ccccc2)nc2ccccc12
- Potency [3]: inactive
- Potency [4]: inactive
- Potency [1]: inconclusive: 23.1 µM [inhibitor, partial curve]
- Potency [5]: inconclusive: 29.1 µM [inhibitor, single point]

Compound: O=C(O)CNC(=O)c1nc(Cl)c2ccccc2c1O
- Potency [1]: inactive
- Potency [2]: inconclusive: 28.6 µM [inhibitor, single point]

Compound: CC/C=C\CC1C(=O)CCC1CC(=O)OC (configuration not stated)
- Potency [5]: inactive

Compound: C[C@H]1CC(=O)C2=C(C1)C(O)C(O)[C@@]1(O)[C@H]2C(=O)c2cccc(O)c2[C@@H]1O (some centres not stated)
- Potency [1]: inactive
- Potency [6]: inconclusive: 6.56 µM [inhibitor, partial curve]
- Potency [7]: inactive

Compound: CCn1cc(NC(=S)Nc2cc(Cl)ccc2OC)c(C(N)=O)n1
- Potency [5]: inactive

Compound: N#C/C(=C1/Nc2ccccc2S1)c1ccnc(OCc2ccc(CN3CCOCC3)cc2)n1
- Potency [1]: inconclusive: 7.42 µM [inhibitor, full curve]
- Potency [5]: inconclusive: 5.25 µM [inhibitor, full curve, poor fit]
- Potency [2]: inconclusive: 32.1 µM [inhibitor, single point]

Compound: NC(=S)N/N=C/c1ncccc1N
- Potency [1]: inconclusive: 37.2 µM [inhibitor, single point]
- Potency [5]: inconclusive: 33.2 µM [inhibitor, single point]
- Potency [2]: inconclusive: 32.1 µM [inhibitor, single point]

Compound: CC[C@@H](Oc1cccc(CN(CCCOc2ccc(OC)cc2)c2nc3ccccc3o2)c1)C(=O)O
- Potency [1]: inconclusive: 23.5 µM [inhibitor, single point]
- Potency [2]: inconclusive: 10.1 µM [inhibitor, partial curve]

Compound: Cc1cc(Oc2ccc3nc(COc4ccc(CC5SC(=O)NC5=O)cc4)n(C)c3c2)cc(C)c1N (configuration not stated)
- Potency [1]: inconclusive: 37.2 µM [inhibitor, partial curve, poor fit]
- Potency [5]: inconclusive: 37.2 µM [inhibitor, single point]
- Potency [2]: inconclusive: 28.6 µM [inhibitor, single point]

Compound: COc1ccc2nc3ccc(OC)cc3c(SCCCN)c2c1
- Potency [1]: inactive
- Potency [8]: inconclusive: 12.8 µM [inhibitor, partial curve, poor fit]

Compound: NCC(=O)Nc1cncc(-c2nn3c(=O)cc(N4CCNCC4)nc3s2)c1
- Potency [5]: inactive

Compound: Cc1onc(-c2c(Cl)cccc2Cl)c1CC(=O)NCc1ccc(OCC(F)(F)F)nc1
- Potency [1]: inconclusive: 18.3 µM [inhibitor, single point]
- Potency [5]: inconclusive: 18.3 µM [inhibitor, single point]
- Potency [7]: inconclusive: 21.2 µM [activator, partial curve, poor fit]

Compound: COc1cc(OC)c2ccc(=O)oc2c1
- Potency [9]: inactive
- Potency [1]: inactive
- Potency [8]: active: 25.5 µM

Compound: C=C1/C(=C/C=C2\CCCC3(C)[C@@H]([C@H](C)/C=C/C=C/C(O)(CC)CC)CC[C@@H]23)C[C@@H](O)C[C@@H]1O (some centres not stated)
- Potency [1]: inconclusive: 26.3 µM [inhibitor, single point]
- Potency [5]: active: 18.6 µM
- Potency [2]: active: 15.8 µM

Compound: CC(=O)CC1CCC(C(C)C(=O)OCC(O)CO)O1 (configuration not stated)
- Potency [1]: inactive
- Potency [6]: inconclusive: 10.6 µM [inhibitor, partial curve]
- Potency [7]: inconclusive: 26.7 µM [activator, single point]

Compound: COc1ccc2c(c1)C(c1ccc(F)cc1)=C(CN1CCCC1)CO2
- Potency [1]: inactive
- Potency [5]: inconclusive: 23.5 µM [inhibitor, single point]
- Potency [2]: inconclusive: 22.7 µM [inhibitor, partial curve, poor fit]

Compound: Cc1cc(O)cc2c1[C@]1(C)CC[C@H]3C(C)(C)CCC[C@]3(C)[C@H]1C2
- Potency [5]: inconclusive: 0.468 µM [inhibitor, partial curve, poor fit]

Compound: Cc1cn([C@H]2C[C@H](O)[C@@H](CO)O2)c(=O)nc1N
- Potency [5]: inactive
- Potency [8]: inactive

Compound: COc1c2c(c(C)c3c1C(=O)OC3)OC1(C)CC(O)C3(O)C(C)(C)OC(=O)CCC3(C)C1C2 (configuration not stated)
- Potency [5]: inactive

Compound: OC[C@H]1O[C@@H](O[C@@H]2OC=C[C@H]3[C@H](O)[C@@H]4O[C@]4(CO)[C@@H]23)[C@H](O)[C@@H](O)[C@@H]1O
- Potency [5]: inactive

Compound: C=C1CC[C@]2(C(=O)O[C@@H]3O[C@H](CO)[C@@H](O)[C@H](O)[C@H]3O)CC[C@]3(C)C(=CCC4[C@@]5(C)C[C@H](O)[C@@H](O[C@@H]6O[C@H](C(=O)O)[C@@H](O)[C@H](O)[C@H]6O)[C@](C)(C=O)C5CC[C@]43C)C2C1 (some centres not stated)
- activity change, negative = cell killing [5]: inactive: -2.63% [at 9.23 µM]
- activity change, negative = thiol reactive [6]: inactive: 113% [at 11.5 µM]
- Potency [7]: inconclusive: 4.5 µM [activator, partial curve, poor fit]

Compound: CC1(C)CCC2(CC1)N[C@@H](C(=O)N[C@@H]1CC[C@@H](C(N)=O)OC1)[C@H](c1ccnc(Cl)c1F)[C@]21C(=O)Nc2cc(Cl)ccc21
- Potency [5]: active: 0.201 µM

Compound: CS(=O)(=O)c1ccc([C@@H](C[C@H]2CCC(=O)C2)C(=O)Nc2cnccn2)cc1Cl
- Potency [5]: inactive

Compound: CC1=CC(=O)C(C(C)C)=C/C1=N/OC(=O)c1ccccc1C
- Potency [5]: active: 11.6 µM

Compound: Cc1cc2ncc(-c3ccccc3)nc2cc1C
- Potency [5]: inactive

Compound: CCn1c(=O)c2c(nc(/C=C/c3ccc(OC)c(OC)c3)n2C)n(CC)c1=O
- Potency [5]: inconclusive: 14.8 µM [inhibitor, partial curve, poor fit]

Compound: CC(C)NCCCn1c(Sc2cc(Cl)cc(Cl)c2)nc2c(N)ncnc21
- Potency [5]: active: 18.6 µM

Compound: CCOc1ccc(/C=C2\SC(=O)N(CCN)C2=O)cc1
- Potency [5]: inactive
- Potency [8]: inconclusive: 14.3 µM [inhibitor, partial curve]

Compound: CS(=O)(=O)c1ccc(-c2cnc(NCc3ccco3)n3cnnc23)cc1
- Potency [5]: inactive
- Potency [8]: inconclusive: 25.8 µM [inhibitor, single point]
- Potency [2]: inconclusive: 18 µM [inhibitor, partial curve]

Compound: Fc1ccc(-c2csc3ncnc(NCc4ccc5c(c4)OCO5)c23)cc1
- Potency [5]: inconclusive: 14.8 µM [inhibitor, partial curve]
- Potency [2]: inactive

Compound: CCS(=O)(=O)c1ccc2oc(-c3ccc4ccccc4c3)nc2c1
- Potency [5]: inactive

Compound: NC(Cc1c[nH]c2ccc(O)cc12)C(=O)O (configuration not stated)
- Potency [5]: inactive
- Potency [6]: active: 16.8 µM
- Potency [7]: inconclusive: 0.844 µM [activator, full curve]

Compound: Cc1ccc(NS(=O)(=O)c2cc3c(cc2NCCO)NC(=O)CC3)cc1C
- Potency [5]: inconclusive: 25.7 µM [inhibitor, single point]

Compound: CCOc1cc(/C=C2/C(=O)N(c3ccccc3)N=C2C)cc(Cl)c1OCC(=O)OC
- Potency [5]: inactive

Compound: CN1C(=O)[C@@H](NC(=O)c2cc(Cc3ccccc3)on2)COc2ccccc21
- Potency [5]: inconclusive: 23.5 µM [inhibitor, single point]

Compound: c1nc(NCC2CCOC2)c2cc(-c3ccc4c(c3)OCO4)ccc2n1 (configuration not stated)
- Potency [5]: inconclusive: 23.1 µM [inhibitor, single point]

Compound: O=c1ncccn1[C@@H]1O[C@H](CO)[C@@H](O)[C@H]1O
- Potency [5]: inconclusive: 23.5 µM [inhibitor, single point]

Compound: C/C=C1\NC(=O)[C@H]2CSSCC/C=C\[C@H](CC(=O)N[C@H](C(C)C)C(=O)N2)OC(=O)[C@H](C(C)C)NC1=O
- Potency [5]: active: 0.0066 µM
- Potency [2]: inconclusive: 7.18 µM [inhibitor, partial curve, poor fit]

Compound: O=C(Nc1cccc(C(F)(F)F)c1)c1cccc2cc(Oc3cc(CO)ncn3)ccc12
- Potency [5]: inactive

Compound: CC(C)C1NC(=O)C(CC2(O)c3ccccc3N3C(=O)C(Cc4ccccc4)NC32)NC1=O (configuration not stated)
- Potency [5]: inactive

Compound: O=C(O)/C(S)=C/c1ccc(I)cc1
- Potency [5]: inconclusive: 37.2 µM [inhibitor, partial curve, poor fit]
- Potency [2]: inconclusive: 28.6 µM [inhibitor, single point]

Compound: O=C(O)CC(C(=O)O)n1c(O)c(C2=c3cc(Br)ccc3=NC2=O)sc1=S (configuration not stated)
- Potency [5]: inactive
- Potency [8]: active: 5.15 µM
- Potency [2]: active: 10.1 µM

Compound: O=C1NC(=O)/C(=C\c2ccc(-c3ccc(F)cc3)o2)S1
- Potency [5]: inactive
- Potency [2]: inconclusive: 28.6 µM [inhibitor, single point]

Compound: COc1cc(COC2OC(CO)C(O)C(O)C2O)cc(OC)c1O (configuration not stated)
- Potency [5]: inactive
- Potency [6]: inconclusive: 13.1 µM [inhibitor, partial curve]

Compound: CCOC(=N)c1nc2ccc3ncnc(Nc4cc(F)c(F)cc4Cl)c3c2s1
- Potency [5]: inconclusive: 20.9 µM [inhibitor, single point]

Compound: Nc1nc(F)nc2c1ncn2C1OC(COP(=O)(O)O)C(O)C1O (configuration not stated)
- Potency [5]: inconclusive: 3.32 µM [inhibitor, full curve, poor fit]

Compound: C[C@]12CC[C@H](O)CC1=CC[C@@H]1[C@@H]2CC[C@]2(C)C(c3cccnc3)=CC[C@@H]12
- Potency [5]: inactive

Compound: C=C1C[C@H]2C=Nc3cc(OCCCOc4cc5c(cc4OC)C(=O)N4CC(=C)C[C@H]4C=N5)c(OC)cc3C(=O)N2C1
- Potency [5]: inactive
- Potency [2]: inconclusive: 20.2 µM [inhibitor, partial curve]

Compound: CC(C)=CCC[C@](C)(O[C@@H]1O[C@H](CO)[C@@H](O)[C@H](O)[C@H]1O)[C@H]1CC[C@]2(C)[C@@H]1[C@H](O)CC1[C@@]3(C)CC[C@H](O)C(C)(C)C3[C@@H](O[C@@H]3O[C@H](CO)[C@@H](O)[C@H](O)[C@H]3O[C@@H]3O[C@@H](C)[C@H](O)[C@@H](O)[C@H]3O)C[C@]12C (some centres not stated)
- activity change, negative = cell killing [5]: inactive: -9.19% [at 9.23 µM]
- activity change, negative = thiol reactive [6]: inactive: 209% [at 11.5 µM]

Source: PubChem BioAssay (NCATS)
